Some of these densities may be calculated back from excess volumes.
Test: xn = mol fraction of the nth substance listed
Details: 298.15 K, 101.3 kPa

CCCC[n+]1ccn(C)c1.F[P-](F)(F)(F)(F)F + CC(C)=O
Details	mass density [kg/m3]
x2 = 0	1367.9
x2 = 0.1147	1345.3
x2 = 0.198	1326.7
x2 = 0.2923	1302.5
x2 = 0.4035	1267.2
x2 = 0.4993	1231.1
x2 = 0.5495	1209.4
x2 = 0.6519	1156.2
x2 = 0.6989	1127.3
x2 = 0.8956	946.8
x2 = 0.9481	874.3

CCCC[n+]1ccn(C)c1.F[P-](F)(F)(F)(F)F + CCC(=O)CC
Details	mass density [kg/m3]
x2 = 0	1367.9

CCCC[n+]1ccn(C)c1.F[P-](F)(F)(F)(F)F + CCC(C)=O
Details	mass density [kg/m3]
x2 = 0	1367.9
x2 = 0.0995	1343.9
x2 = 0.2007	1317.5
x2 = 0.5002	1210.2
x2 = 0.5506	1186.1
x2 = 0.5988	1161.3
x2 = 0.7023	1098.2
x2 = 0.8004	1024
x2 = 0.9027	925.1
x2 = 0.9487	872.3

CC(C)=O + CCCC[n+]1ccn(C)c1.F[P-](F)(F)(F)(F)F
Details	mass density [kg/m3]
x1 = 1	784.9

CCC(=O)CC + CCCC[n+]1ccn(C)c1.F[P-](F)(F)(F)(F)F
Details	mass density [kg/m3]
x1 = 0.1088	1336.5
x1 = 0.3986	1236.6
x1 = 0.4491	1214.9
x1 = 0.5503	1165.7
x1 = 0.601	1138.7
x1 = 0.6983	1080.2
x1 = 0.8007	1006.4
x1 = 0.9019	917.9
x1 = 0.948	870.9
x1 = 1	810.9

CCC(C)=O + CCCC[n+]1ccn(C)c1.F[P-](F)(F)(F)(F)F
Details	mass density [kg/m3]
x1 = 1	799.7

CCOC(C)=O + CCCC[n+]1ccn(C)c1.F[P-](F)(F)(F)(F)F
Details	mass density [kg/m3]
x1 = 1	894.6

O=C1CCCC1 + CCCC[n+]1ccn(C)c1.F[P-](F)(F)(F)(F)F
Details	mass density [kg/m3]
x1 = 0.1883	1330.7
x1 = 0.4475	1264.2
x1 = 0.5025	1246.3
x1 = 0.6034	1210.9
x1 = 0.6502	1188.6
x1 = 0.7011	1163.9
x1 = 0.8041	1106
x1 = 0.8982	1039.4
x1 = 0.9518	991
x1 = 1	943.9

CCCC[n+]1ccn(C)c1.F[P-](F)(F)(F)(F)F + CCOC(C)=O
Details	mass density [kg/m3]
x2 = 0	1367.9
x2 = 0.0937	1347.9
x2 = 0.1914	1325.6
x2 = 0.2918	1297.9
x2 = 0.3944	1267.1
x2 = 0.4485	1249.5
x2 = 0.4967	1231.7
x2 = 0.5529	1209.2
x2 = 0.6039	1186.5
x2 = 0.7092	1131
x2 = 0.8037	1070.8
x2 = 0.898	996.5
x2 = 0.9504	947.5

Reference: a compilation of properties of binary mixtures (doi:10.1007/s10953-005-5594-7)
